The source of these data is the antibiotic and cytotoxicity screens of Wong et al. (2023).

SMILES strings stand for the structures. The list shows a part of the results.

In one assay the test system is HSkMC. Put plainly: cytotoxicity call (relative viability < 0.9). As to conditions: 10 µM.
The test system of a further assay is HepG2. Put plainly: cytotoxicity call (relative viability < 0.9). As to conditions: 10 µM.
For a further assay, the system named is S. aureus RN4220. Put plainly: growth inhibition call (relative growth <= 0.2). The following applies: 50 µM.

In the case of `O=C(C[C@H]1CC[C@H]2[C@@H](COC[C@H](O)CN2S(=O)(=O)c2cccc(Cl)c2)O1)NCc1ccc2c(c1)OCO2`, the cytotoxicity call in the assay on HSkMC and in the assay with HepG2 was “inactive” each time. Besides, in the assay on S. aureus RN4220, the growth inhibition call was “inactive”.
As for `Cc1ccccc1S(=O)(=O)N1C[C@H](O)COC[C@H]2O[C@H](CC(=O)N3CCC(Cc4ccccc4)CC3)CC[C@@H]21`, the cytotoxicity call with HSkMC was “inactive”. Moreover, the cytotoxicity call in the assay on HepG2 is “active”. Also, the growth inhibition call in the assay on S. aureus RN4220 is “inactive”.
As for `C[C@@H]1CN([C@H](C)CO)C(=O)c2cc(NC(=O)NC3CCCCC3)ccc2O[C@@H](C)CCCCO[C@H]1CN(C)C(=O)c1ccccc1`, the cytotoxicity call in the assay on HSkMC and with HepG2 was “inactive” each time. The growth inhibition call in the assay on S. aureus RN4220 was “inactive”.
For `O=C1COC(=O)N1C1CCNCC1`, the cytotoxicity call with HSkMC and with HepG2 was “inactive” each time. Besides, the growth inhibition call in the assay with S. aureus RN4220 is “inactive”.
With `CN1CCN(C(=O)C[C@H]2C=C[C@@H](NC(=O)Nc3ccccc3F)[C@H](CO)O2)CC1`, the cytotoxicity call in the assay with HSkMC and in the assay on HepG2 was “inactive” throughout. The growth inhibition call in the assay with S. aureus RN4220 is “inactive”.
`C[C@@H]1CN([C@H](C)CO)C(=O)Cc2cc(NC(=O)CCN3CCOCC3)ccc2O[C@H]1CN(C)Cc1ccncc1`: the cytotoxicity call in the assay with HSkMC and in the assay with HepG2 was “inactive” each time. In the assay with S. aureus RN4220, the growth inhibition call is “inactive”.
For `COC(=O)c1c(C(=O)OC)c2n(c(=O)c1-c1ccccc1)[C@@H]1c3ccccc3O[C@@](COCc3ccc(OC)cc3)([C@@H]1CO[Si](C)(C)C(C)(C)C)N2C`, the cytotoxicity call in the assay with HSkMC and with HepG2 was “inactive” each time. Moreover, the growth inhibition call in the assay with S. aureus RN4220 is “inactive”.
As for `C[C@@H]1CN([C@@H](C)CO)S(=O)(=O)c2ccc(C#Cc3ccc(F)cc3)cc2O[C@H]1CN(C)S(=O)(=O)c1cn(C)cn1`, the cytotoxicity call in the assay on HSkMC and with HepG2 was “inactive” in each case. Besides, in the assay on S. aureus RN4220, the growth inhibition call was “inactive”.
Turning to `C[C@H](CO)N1C[C@H](C)[C@@H](CN(C)S(=O)(=O)c2cccs2)OCCCC[C@H](C)Oc2ccc(NC(=O)Nc3ccc(F)cc3)cc2C1=O`, the cytotoxicity call in the assay with HSkMC and in the assay with HepG2 was “inactive” throughout. The growth inhibition call in the assay on S. aureus RN4220 is “inactive”.
For `COc1ccc(CN(C)C[C@@H]2OCCCC[C@H](C)Oc3ccc(NS(=O)(=O)c4ccc(C)cc4)cc3C(=O)N([C@@H](C)CO)C[C@H]2C)cc1`, the cytotoxicity call with HSkMC and with HepG2 was “inactive” in each case. Also, in the assay with S. aureus RN4220, the growth inhibition call was “inactive”.
For the molecule `CN1C(=O)N(C)[C@H]2NC(=O)N[C@@H]21`, the cytotoxicity call in the assay with HSkMC and in the assay on HepG2 was “inactive” in each case. Besides, the growth inhibition call in the assay with S. aureus RN4220 is “inactive”.
On to `O=C1N[C@@H](c2ccccc2)COCc2cn(nn2)CC[C@H](Cc2ccc(C(F)(F)F)cc2)C(=O)N[C@@H](c2ccccc2)COCc2cn(nn2)CC[C@@H]1Cc1ccc(C(F)(F)F)cc1`, for which the cytotoxicity call in the assay on HSkMC and in the assay on HepG2 was “inactive” each time. For the same molecule, the growth inhibition call in the assay with S. aureus RN4220 is “inactive”.
For `Cc1ccc(S(=O)(=O)Nc2cccc3c2O[C@H](CN(C)Cc2ccc(C(F)(F)F)cc2)[C@H](C)CN([C@@H](C)CO)C3=O)cc1`, the cytotoxicity call in the assay with HSkMC and in the assay with HepG2 was “inactive” each time. In the assay with S. aureus RN4220, the growth inhibition call was “inactive”.
Regarding `Cc1noc(C)c1S(=O)(=O)N(C)C[C@H]1Oc2ccc(NC(=O)C3CCCCC3)cc2CC(=O)N([C@H](C)CO)C[C@@H]1C`, the cytotoxicity call in the assay with HSkMC and in the assay on HepG2 was “inactive” in each case. Moreover, the growth inhibition call with S. aureus RN4220 was “inactive”.
Take `C[C@H]1CN([C@@H](C)CO)C(=O)c2cc(NS(C)(=O)=O)ccc2O[C@@H]1CN(C)C(=O)Nc1ccccc1`: the cytotoxicity call in the assay with HSkMC and in the assay with HepG2 was “inactive” throughout. Also, the growth inhibition call with S. aureus RN4220 is “inactive”.
`CC(C)(C)Oc1ccc(O)cc1`: the cytotoxicity call in the assay with HSkMC and with HepG2 was “inactive” in each case. In addition, the growth inhibition call in the assay on S. aureus RN4220 was “inactive”.
Regarding `CN[C@H]1CCS(=O)(=O)C1`, the cytotoxicity call in the assay on HSkMC and in the assay on HepG2 was “inactive” each time. Also, in the assay with S. aureus RN4220, the growth inhibition call was “inactive”.
For the molecule `C[C@H]1CCCCO[C@H](CN(C)S(=O)(=O)c2cccs2)[C@@H](C)CN([C@@H](C)CO)C(=O)c2cc(NS(=O)(=O)c3cn(C)cn3)ccc2O1`, the cytotoxicity call in the assay on HSkMC and in the assay on HepG2 was “inactive” throughout. Also, the growth inhibition call with S. aureus RN4220 was “inactive”.
Regarding `CC(C)NC(=O)Nc1ccc2c(c1)C(=O)N([C@@H](C)CO)C[C@H](C)[C@@H](CN(C)S(=O)(=O)c1cn(C)cn1)OCCCC[C@@H](C)O2`, the cytotoxicity call with HSkMC and with HepG2 was “inactive” each time. In addition, in the assay on S. aureus RN4220, the growth inhibition call is “inactive”.
With `CCS(=O)(=O)N1[C@@H](CO)[C@@H](c2ccccc2)C12CN(C(=O)CN(C)C)C2`, the cytotoxicity call in the assay on HSkMC and in the assay with HepG2 was “inactive” in each case. The growth inhibition call in the assay on S. aureus RN4220 is “inactive”.
On to `C[C@@H]1CN([C@@H](C)CO)C(=O)c2cc(NC(=O)CCC(F)(F)F)ccc2O[C@@H](C)CCCCO[C@H]1CN(C)C(=O)NC1CCCCC1`, for which the cytotoxicity call in the assay with HSkMC and in the assay on HepG2 was “inactive” each time. Also, the growth inhibition call in the assay with S. aureus RN4220 is “inactive”.
For the molecule `Cc1noc(C)c1NC(=O)N(C)C[C@@H]1OCCCC[C@H](C)Oc2ccc(NS(=O)(=O)c3ccc(F)cc3)cc2C(=O)N([C@@H](C)CO)C[C@@H]1C`, the cytotoxicity call in the assay with HSkMC and with HepG2 was “inactive” each time. Moreover, the growth inhibition call in the assay with S. aureus RN4220 was “inactive”.
On to `Cc1nccn1CCc1nc(N)nc(N)n1`, for which the cytotoxicity call in the assay on HSkMC (human skeletal muscle cells) and in the assay with HepG2 was “inactive” in each case. In addition, in the assay on S. aureus RN4220, the growth inhibition call was “inactive”.
Take `O=C(/C=C/c1ccc(CNc2ccc([C@H]3O[C@@H](CSc4ccncc4)C[C@H](c4ccccc4)O3)cc2)cc1)NO`: the cytotoxicity call with HSkMC and with HepG2 was “active” each time. For the same molecule, the growth inhibition call in the assay on S. aureus RN4220 was “inactive”.
In the case of `C[C@@H]1CN([C@H](C)CO)C(=O)c2cccc(NC(=O)C3CCCCC3)c2O[C@H]1CN(C)Cc1ccc(Cl)c(Cl)c1`, the cytotoxicity call with HSkMC and in the assay with HepG2 was “inactive” in each case. Also, the growth inhibition call with S. aureus RN4220 was “inactive”.
Regarding `COc1ccc(CN(C)C[C@@H]2OCCCC[C@@H](C)Oc3ccc(NC(=O)Nc4c(C)noc4C)cc3C(=O)N([C@@H](C)CO)C[C@H]2C)cc1`, the cytotoxicity call with HSkMC and in the assay with HepG2 was “inactive” each time. For the same molecule, in the assay on S. aureus RN4220, the growth inhibition call is “inactive”.
`CCCCN1CCCCC1C(=O)Nc1c(C)cccc1C.Cl` (centres undefined): the cytotoxicity call with HSkMC and in the assay with HepG2 was “inactive” in each case. For the same molecule, the growth inhibition call in the assay on S. aureus RN4220 is “inactive”.
Turning to `C[C@H](CO)N1C[C@H](C)[C@@H](CN(C)S(C)(=O)=O)Oc2ccc(NC(=O)Cc3ccccc3)cc2C1=O`, the cytotoxicity call in the assay with HSkMC and in the assay with HepG2 was “inactive” in each case. For the same molecule, the growth inhibition call in the assay with S. aureus RN4220 was “inactive”.
